This note sets out measurements from PubChem BioAssay AID1508624 (National Center for Advancing Translational Sciences (NCATS), 2021).

Each structure is given as a SMILES string. Screen size: about 48,000 compounds; about 120 (0.25%) were called active. Not shown: some 4% with an inconclusive outcome. Calls follow the shape of the dose curve; as a rule, active = well fitted activation curve with a large enough effect; inconclusive = small, poorly fitted or top-dose-only effect, or another doubt; inactive = no such curve, though single readings can be large or run the other way. The list shows a part of the results.

The experiment can be described thus: Primary qHTS for Identification of Small Molecule Activators of Huntingtin-Antisense Promoter Activity. Also: nearly all actives have a fitted effect of over 55% in size. The note with it: HEK293 HTT-AS promoter firefly luciferase reporter, 24 h; series mostly up to 57.5 µM; activity change, positive = activation: at the top concentration. Summed up:
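Firefly luciferase readout (Dual-Glo, 10 min RT) after 24 h, 37 °C compound exposure (final up to 57.5 uM) of HEK293 reporter cells cultured 24 h beforehand; PTC124 at 50 uM final as control inhibitor; activity scaled vehicle 0%, zero RLU -100%.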
A general note: In qHTS, concentration-response curves come from the screen itself.
Consider `COc1cc(OC)c(NC(=O)CCc2c(C)nc3cc(-c4ccccc4OC)nn3c2C)cc1Cl`, for which the “activity change, positive = activation” value was inactive: -26.3%. With `CC(C)OC(=O)c1c(NC(=O)C2c3ccccc3Oc3ccccc32)sc2c1CCCC2`, the activity change, positive = activation was inactive: -3.22% [at 11.5 µM, percent change from vehicle, -100% = no light]. For `COc1ccccc1-c1noc(CCC(=O)Nc2ccc(C)cc2C)n1`, the “activity change, positive = activation” value was inactive: -15.5%. As for `Cc1ccc(NC(=O)C2CCCN(S(=O)(=O)c3cn(C(C)C)cn3)C2)c(C)c1` (configuration not stated), the figure is inactive: 4.14%.

Consider `C[C@H]1C[C@H]2[C@@H]3CCC4=CC(=O)C=C[C@]4(C)[C@@]3(Cl)[C@@H](O)C[C@]2(C)[C@@]1(O)C(=O)CO`, for which the “activity change, positive = activation” value was inactive: -17.5%.

With `CCC(Sc1nc2ccncc2[nH]1)C(=O)Nc1ccc(F)cc1` (configuration not stated), the “activity change, positive = activation” value was inactive: -26.7%. Next, `CCOc1ccc(N(C)C(=O)C2CCN(S(=O)(=O)c3ccc4c(c3)CCCN4C(C)=O)CC2)cc1`: inactive: -32%; `COc1cccc(-n2c(=O)c3sc4ccccc4c3n(CC(=O)Nc3ccccc3OC)c2=O)c1`: inactive: -31.2%; `Cc1ccc(-n2nc(CO)c(C(=O)NCCc3ccccc3)n2)cc1`: inactive: -13.4%. `Cc1ccc(Cl)cc1N1CCN(C(=O)Cn2ncc3c([nH]c4ccccc43)c2=O)CC1`: the “activity change, positive = activation” value is inactive: -3.2%. Next, `O=S(=O)(c1ccccc1)c1nnn2c1nc(Nc1ccccc1)c1cc(Cl)ccc12`: inactive: -2.76%; `Cc1cc(C)cc(NC(=O)C(NS(=O)(=O)c2cccc3nsnc23)c2ccccc2)c1` (configuration not stated): inactive: -8.86%. As for `O=C(CSc1nnc(-c2ccc(Cl)cc2)o1)N1CCc2ccccc21`, the figure is inactive: 0.0069%; as for `CCOC(=O)N1CCN(C(=O)c2ccc3c(c2)N(Cc2cc(C)ccc2C)C(=O)c2ccccc2S3=O)CC1` (configuration not stated), inactive: -42.8%; as for `CCCCOc1nnc(-c2ccc(OCC)cc2)c2ccccc12`, inactive: -20.1%. As for `COc1ccc(CCNC(=O)CCc2cn(Cc3ccc(C)cc3)c3ccccc23)cc1OC`, the figure is inactive: -19.8%; as for `CCCc1cc(=O)n2[nH]c(NCc3ccc(CC)cc3)nc2n1`, inactive: 4.66%. Take `O=C1c2[nH]nc(-c3ccccc3)c2C(c2ccccc2)N1c1cccc(C(F)(F)F)c1` (configuration not stated): the “activity change, positive = activation” value is inactive: -58.1%. Consider `O=C1SC(Nc2ccc(Cl)cc2)C(=O)N1Cc1ccccc1` (configuration not stated), for which the “activity change, positive = activation” value is inactive: -18.8%. Take `Cc1c(Cl)cccc1Nc1nc(N)nc(CSc2nc3ccccc3s2)n1`: the “activity change, positive = activation” value was inactive: -19.6%. `O=C1CS(=O)(=O)C2(C(=O)N(Cc3ccc(F)cc3)c3ccccc32)N1c1cccc(C(F)(F)F)c1` (configuration not stated): the “activity change, positive = activation” value is inactive: -27.8%.

As to `Cc1ccc2oc(C(=O)Nc3ccc(S(=O)(=O)Nc4onc(C)c4C)cc3)cc(=O)c2c1`, the activity change, positive = activation is inactive: 3.2% [at 11.5 µM, percent change from vehicle, -100% = no light].

Consider `CCOC(=O)c1c(C)[nH]c(C)c1S(=O)(=O)N1CCC(C(=O)N2CCN(c3cc(C)ccc3C)CC2)CC1`, for which the “activity change, positive = activation” value was inactive: -48.5%. On to `CC1CCN(S(=O)(=O)c2ccc3c(c2)N(CC(=O)NCCc2ccc(Cl)cc2)C(=O)CO3)CC1`, for which the “activity change, positive = activation” value was inactive: -33.2%. With `Cc1ccc(NC(=O)CCCn2c3ccccc3c(=O)c3cc(C)ccc32)c(Br)c1`, the “activity change, positive = activation” value was inactive: -31.5%. As for `O=C(CSc1ncc(S(=O)(=O)c2ccc(Cl)cc2)c(=O)[nH]1)Nc1ccc2c(c1)OCCO2`, the figure is inactive: -9.85%. As to `COc1cccc(C(=O)NCC(=O)OCc2cc(=O)n3nc(C)sc3n2)c1`, the “activity change, positive = activation” value was inactive: -4.24%. Next, `CCCC(=O)Nc1nnc(SCc2cc(=O)c3ccc(C)cc3[nH]2)s1`: inactive: -52.5%; `CCCCNC(=O)C1=CC(c2ccc3c(c2)OCO3)=NS(=O)(=O)N1C`: inactive: -12.5%; `CCCCCC(N)=O`: inactive: 4.8%.

Take `COc1ccc2c(Sc3ccccc3)c(C(=O)NCc3ccc(OC(C)C)cc3)[nH]c2c1`: the “activity change, positive = activation” value is inactive: -5.56%. As for `CN1CCN(c2cccc(Nc3nc4c(-c5ccc(S(C)(=O)=O)cc5)cccn4n3)c2)CC1`, the figure is inactive: -14%; as for `COc1cccc(CNC(=O)c2cc3n(n2)CCCN(Cc2ccc(C)cc2)C3=O)c1OC`, inactive: -14.7%; as for `COc1ccc(-c2nc3ccc(NS(=O)(=O)c4ccccc4)cc3o2)cc1`, inactive: -8.63%. On to `CCOc1ccc(-n2c(SCC(=O)NCc3ccco3)nc3c([nH]c4ccccc43)c2=O)cc1`, for which the “activity change, positive = activation” value is inactive: -30.7%. With `Cc1cccc(-c2nnc3n(CCc4ccccc4)c(=O)c4ccccc4n23)c1`, the “activity change, positive = activation” value was inactive: 0%.

Consider `Cc1ccc(NC(=O)c2sc(-n3nc(C)c(Cc4ccc(Cl)cc4)c3C)nc2C)cc1`, for which the “activity change, positive = activation” value is inactive: 5.34%. As for `Cc1ccc(-n2c3nc(=O)[nH]c(=O)c-3cc3c(Cl)cccc32)cc1`, the figure is inactive: -16.5%; as for `Cc1ccc(C)c(NC(=O)N2CCN(C)c3ncccc32)c1`, inactive: -27.5%. As for `Cc1ccc(Cn2ccnc2SCC(=O)Nc2ccc3c(c2)OCO3)cc1`, the figure is inactive: -4.96%; as for `Oc1ccc(O)cc1`, inactive: -22%. Next, `CCN(Cc1ccccc1)C(=O)Cn1c(=O)n(-c2ccc(OC)cc2OC)c(=O)c2c(C)c(C)sc21`: inactive: 0.426%. For the compound `CCOc1ccc(NC(=O)c2c(NC(=O)Cc3ccccc3)sc3c2CCCC3)cc1`, the “activity change, positive = activation” value is inactive: -29.1%. In the case of `COc1ccc(Cl)cc1NC(=O)Cn1c(=O)n(Cc2ccco2)c(=O)c2ccc(C(=O)NC3CCCC3)cc21`, the “activity change, positive = activation” value is inactive: -11.8%. `CCOc1ccc(CNC(=O)c2ccc(-c3nc(CSc4ccc(C)cc4)c(C)o3)cc2)cc1`: the “activity change, positive = activation” value was inactive: -20%.

Turning to `CCCCn1c2ccccc2c2nnc(SCC(=O)Nc3ccc(NC(C)=O)cc3)nc21`, the “activity change, positive = activation” value is inactive: -1.03%.

Consider `Cc1oc2ccc(O)c(CN(C)Cc3ccccc3)c2c1C(=O)Nc1cccc(Cl)c1C`, for which the “activity change, positive = activation” value is inactive: -48.3%.
